The list shows a part of the results. Rule as the data show it: active = 3.2 or more and inactive = the rest. The signal is at background level for most entries.
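Also: displayed peptides selected on beads carrying the immobilized SH2 domain, with library peptides lacking any tyrosine serving as negative controls.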

The first assay concerns the target SHP2 C-SH2 domain E139D. The experiment in a line: enrichment score (SH2-bound / input frequency) (ratio); bacterial display of known human phosphotyrosine sites (pTyr-Var adds point mutants) read by sequencing; higher = stronger binding; tyrosines were phosphorylated by kinases first. The settings on record: peptide library: pTyr-Var.
Turning to GGSTYYIDTNA [ACTL6A_Y69_P66S], the enrichment score was inactive: 0.572.

As for EAIMTYVSSFF [ACTN4_Y260_K255E_YF], the enrichment score is inactive: 0.761.

On to EAIMTYVSSFY [ACTN4_Y260_K255E], for which the enrichment score is inactive: 0.777.

As to SIVEDYRPPFF [ACVRL1_Y421_G416S_YF], the enrichment score is inactive: 0.941.

Take AIYEGYALPHA [ACTC1_Y171_P166A]: the enrichment score is inactive: 0.742.

In the case of ISKQEYDEAGP [ACTC1_Y364], the enrichment score was inactive: 0.49.

For the molecule RDLTHYLMKIL [ACTG1_Y188_D187H], the enrichment score was active: 3.52.

AVLSLCASGRT [ACTA2_Y145_Y145C]: the enrichment score is inactive: 0.842.

As to IRKDLYANNVL [ACTA2_Y296], the enrichment score was inactive: 0.951.

With LTERGYSFTTK [ACTG1_Y198_T203K], the enrichment score is inactive: 0.665.

Turning to YVSSFYHAFSG [ACTN4_Y265], the enrichment score was inactive: 1.74.

IGKDLYANNVL [ACTA2_Y296_R292G]: the enrichment score was inactive: 0.827.

For the molecule WHHIFYNELRV [ACTG1_Y91_T89I], the enrichment score was inactive: 1.16.

HNVAIYEGFAL [ACTC1_Y168_P166A_YF]: the enrichment score is inactive: 0.853.

Take IRKDLYSNNVL [ACTC1_Y296_A297S]: the enrichment score is inactive: 1.29.

Consider GIVEDYRPTFF [ACVRL1_Y421_P424T_YF], for which the enrichment score was inactive: 0.877.

As to LTERGYSFTTT [ACTB_Y198], the enrichment score was inactive: 0.984.

Take YVFSFYHAFSG [ACTN4_Y265_S262F]: the enrichment score is inactive: 2.44.

Regarding QDLTDYLMKIL [ACTA2_Y190_R185Q], the enrichment score was inactive: 1.62.

The next assay concerns the target SHP2 C-SH2 domain wild-type. Described as above. The settings on record: peptide library: pTyr-Var.
GGSTYYIDTNA [ACTL6A_Y69_P66S]: the enrichment score was inactive: 0.675.

On to EAIMTYVSSFF [ACTN4_Y260_K255E_YF], for which the enrichment score was inactive: 0.622.

Turning to EAIMTYVSSFY [ACTN4_Y260_K255E], the enrichment score is inactive: 0.631.

In the case of SIVEDYRPPFF [ACVRL1_Y421_G416S_YF], the enrichment score was inactive: 0.758.

Regarding AIYEGYALPHA [ACTC1_Y171_P166A], the enrichment score was inactive: 0.643.

As to ISKQEYDEAGP [ACTC1_Y364], the enrichment score is inactive: 0.643.

With RDLTHYLMKIL [ACTG1_Y188_D187H], the enrichment score is active: 3.82.

In the case of AVLSLCASGRT [ACTA2_Y145_Y145C], the enrichment score is inactive: 0.953.

Turning to IRKDLYANNVL [ACTA2_Y296], the enrichment score was inactive: 1.04.

As for LTERGYSFTTK [ACTG1_Y198_T203K], the enrichment score is inactive: 0.527.

Regarding YVSSFYHAFSG [ACTN4_Y265], the enrichment score was inactive: 2.08.

On to IGKDLYANNVL [ACTA2_Y296_R292G], for which the enrichment score was inactive: 0.898.

On to WHHIFYNELRV [ACTG1_Y91_T89I], for which the enrichment score was inactive: 1.25.

On to HNVAIYEGFAL [ACTC1_Y168_P166A_YF], for which the enrichment score was inactive: 0.74.

As for IRKDLYSNNVL [ACTC1_Y296_A297S], the enrichment score is inactive: 0.809.

Take GIVEDYRPTFF [ACVRL1_Y421_P424T_YF]: the enrichment score is inactive: 0.924.

For the molecule LTERGYSFTTT [ACTB_Y198], the enrichment score was inactive: 0.957.

For YVFSFYHAFSG [ACTN4_Y265_S262F], the enrichment score was inactive: 2.33.

With QDLTDYLMKIL [ACTA2_Y190_R185Q], the enrichment score was inactive: 1.16.

A further assay has as its target SHP2 N-SH2 domain L43F. The description is as above. The settings on record: peptide library: pTyr-Var.
On to GGSTYYIDTNA [ACTL6A_Y69_P66S], for which the enrichment score was inactive: 0.932.

In the case of EAIMTYVSSFF [ACTN4_Y260_K255E_YF], the enrichment score was inactive: 0.671.

EAIMTYVSSFY [ACTN4_Y260_K255E]: the enrichment score is inactive: 0.749.

As to SIVEDYRPPFF [ACVRL1_Y421_G416S_YF], the enrichment score was inactive: 1.16.

For AIYEGYALPHA [ACTC1_Y171_P166A], the enrichment score is inactive: 0.791.

ISKQEYDEAGP [ACTC1_Y364]: the enrichment score is inactive: 0.465.

As for RDLTHYLMKIL [ACTG1_Y188_D187H], the enrichment score is active: 3.62.

On to AVLSLCASGRT [ACTA2_Y145_Y145C], for which the enrichment score was inactive: 0.779.

IRKDLYANNVL [ACTA2_Y296]: the enrichment score is inactive: 0.936.

As to LTERGYSFTTK [ACTG1_Y198_T203K], the enrichment score is inactive: 0.567.

In the case of YVSSFYHAFSG [ACTN4_Y265], the enrichment score was inactive: 1.94.

For IGKDLYANNVL [ACTA2_Y296_R292G], the enrichment score was inactive: 0.794.

For WHHIFYNELRV [ACTG1_Y91_T89I], the enrichment score is inactive: 1.26.

Consider HNVAIYEGFAL [ACTC1_Y168_P166A_YF], for which the enrichment score is inactive: 1.09.

As for IRKDLYSNNVL [ACTC1_Y296_A297S], the enrichment score is inactive: 0.974.

GIVEDYRPTFF [ACVRL1_Y421_P424T_YF]: the enrichment score is inactive: 0.959.

For LTERGYSFTTT [ACTB_Y198], the enrichment score was inactive: 0.871.

Take YVFSFYHAFSG [ACTN4_Y265_S262F]: the enrichment score is inactive: 2.13.

On to QDLTDYLMKIL [ACTA2_Y190_R185Q], for which the enrichment score was inactive: 0.829.

The target of the next assay is SHP2 N-SH2 domain T42A. The description is as above. Particulars: peptide library: pTyr-Var.
Regarding GGSTYYIDTNA [ACTL6A_Y69_P66S], the enrichment score was inactive: 0.992.

As to EAIMTYVSSFF [ACTN4_Y260_K255E_YF], the enrichment score is inactive: 0.497.

Regarding EAIMTYVSSFY [ACTN4_Y260_K255E], the enrichment score was inactive: 0.61.

In the case of SIVEDYRPPFF [ACVRL1_Y421_G416S_YF], the enrichment score was inactive: 0.697.

In the case of AIYEGYALPHA [ACTC1_Y171_P166A], the enrichment score is inactive: 0.643.

In the case of ISKQEYDEAGP [ACTC1_Y364], the enrichment score was inactive: 0.425.

For the molecule RDLTHYLMKIL [ACTG1_Y188_D187H], the enrichment score was active: 3.41.

AVLSLCASGRT [ACTA2_Y145_Y145C]: the enrichment score is inactive: 0.8.

As to IRKDLYANNVL [ACTA2_Y296], the enrichment score is inactive: 0.813.

Regarding LTERGYSFTTK [ACTG1_Y198_T203K], the enrichment score was inactive: 0.583.

YVSSFYHAFSG [ACTN4_Y265]: the enrichment score was inactive: 1.82.

As to IGKDLYANNVL [ACTA2_Y296_R292G], the enrichment score was inactive: 0.798.

WHHIFYNELRV [ACTG1_Y91_T89I]: the enrichment score is inactive: 1.25.

For HNVAIYEGFAL [ACTC1_Y168_P166A_YF], the enrichment score was inactive: 0.89.

As for IRKDLYSNNVL [ACTC1_Y296_A297S], the enrichment score was inactive: 0.756.

GIVEDYRPTFF [ACVRL1_Y421_P424T_YF]: the enrichment score is inactive: 0.858.

Turning to LTERGYSFTTT [ACTB_Y198], the enrichment score was inactive: 0.702.

On to YVFSFYHAFSG [ACTN4_Y265_S262F], for which the enrichment score is inactive: 2.02.

Turning to QDLTDYLMKIL [ACTA2_Y190_R185Q], the enrichment score was inactive: 1.25.

The next assay has as its target SHP2 N-SH2 domain T52S. The assay is described as above. Particulars: peptide library: pTyr-Var.
Regarding GGSTYYIDTNA [ACTL6A_Y69_P66S], the enrichment score is inactive: 0.643.

For the molecule EAIMTYVSSFF [ACTN4_Y260_K255E_YF], the enrichment score was inactive: 0.655.

Take EAIMTYVSSFY [ACTN4_Y260_K255E]: the enrichment score was inactive: 0.683.

For the molecule SIVEDYRPPFF [ACVRL1_Y421_G416S_YF], the enrichment score was inactive: 0.932.

With AIYEGYALPHA [ACTC1_Y171_P166A], the enrichment score is inactive: 0.705.

As to ISKQEYDEAGP [ACTC1_Y364], the enrichment score was inactive: 0.493.

Consider RDLTHYLMKIL [ACTG1_Y188_D187H], for which the enrichment score is active: 3.2.

For AVLSLCASGRT [ACTA2_Y145_Y145C], the enrichment score was inactive: 0.745.

Turning to IRKDLYANNVL [ACTA2_Y296], the enrichment score is inactive: 0.924.

LTERGYSFTTK [ACTG1_Y198_T203K]: the enrichment score was inactive: 0.835.

In the case of YVSSFYHAFSG [ACTN4_Y265], the enrichment score is inactive: 2.04.

With IGKDLYANNVL [ACTA2_Y296_R292G], the enrichment score is inactive: 0.791.

For the molecule WHHIFYNELRV [ACTG1_Y91_T89I], the enrichment score was inactive: 1.24.

Consider HNVAIYEGFAL [ACTC1_Y168_P166A_YF], for which the enrichment score is inactive: 0.785.

Turning to IRKDLYSNNVL [ACTC1_Y296_A297S], the enrichment score was inactive: 0.814.

In the case of GIVEDYRPTFF [ACVRL1_Y421_P424T_YF], the enrichment score was inactive: 0.97.

In the case of LTERGYSFTTT [ACTB_Y198], the enrichment score is inactive: 0.862.

On to YVFSFYHAFSG [ACTN4_Y265_S262F], for which the enrichment score is inactive: 2.29.

QDLTDYLMKIL [ACTA2_Y190_R185Q]: the enrichment score was inactive: 1.41.

Another assay addresses SHP2 N-SH2 domain wild-type. The assay is described as above. Particulars: peptide library: pTyr-Var.
Turning to GGSTYYIDTNA [ACTL6A_Y69_P66S], the enrichment score is inactive: 0.885.

Take EAIMTYVSSFF [ACTN4_Y260_K255E_YF]: the enrichment score was inactive: 0.65.

Consider EAIMTYVSSFY [ACTN4_Y260_K255E], for which the enrichment score was inactive: 0.767.

On to SIVEDYRPPFF [ACVRL1_Y421_G416S_YF], for which the enrichment score is inactive: 0.924.

As for AIYEGYALPHA [ACTC1_Y171_P166A], the enrichment score is inactive: 0.717.

As for ISKQEYDEAGP [ACTC1_Y364], the enrichment score was inactive: 0.538.

As to RDLTHYLMKIL [ACTG1_Y188_D187H], the enrichment score was active: 3.39.

With AVLSLCASGRT [ACTA2_Y145_Y145C], the enrichment score was inactive: 1.3.

Consider IRKDLYANNVL [ACTA2_Y296], for which the enrichment score was inactive: 1.04.

For LTERGYSFTTK [ACTG1_Y198_T203K], the enrichment score is inactive: 0.594.

For the molecule YVSSFYHAFSG [ACTN4_Y265], the enrichment score was inactive: 1.67.

For the molecule IGKDLYANNVL [ACTA2_Y296_R292G], the enrichment score was inactive: 1.28.

On to WHHIFYNELRV [ACTG1_Y91_T89I], for which the enrichment score was inactive: 1.41.

In the case of HNVAIYEGFAL [ACTC1_Y168_P166A_YF], the enrichment score is inactive: 0.789.

Consider IRKDLYSNNVL [ACTC1_Y296_A297S], for which the enrichment score was inactive: 0.805.

As to GIVEDYRPTFF [ACVRL1_Y421_P424T_YF], the enrichment score is inactive: 1.04.

With LTERGYSFTTT [ACTB_Y198], the enrichment score was inactive: 1.

Turning to YVFSFYHAFSG [ACTN4_Y265_S262F], the enrichment score was inactive: 2.19.

Regarding QDLTDYLMKIL [ACTA2_Y190_R185Q], the enrichment score is inactive: 1.12.

Values taken from the supplement of paper PMC10369915.
